Binding data for 2 molecules are collected here from publication PMC4160250.

Amino acid sequences for entries named in this document (tags omitted).
UniProt Q8WUN7: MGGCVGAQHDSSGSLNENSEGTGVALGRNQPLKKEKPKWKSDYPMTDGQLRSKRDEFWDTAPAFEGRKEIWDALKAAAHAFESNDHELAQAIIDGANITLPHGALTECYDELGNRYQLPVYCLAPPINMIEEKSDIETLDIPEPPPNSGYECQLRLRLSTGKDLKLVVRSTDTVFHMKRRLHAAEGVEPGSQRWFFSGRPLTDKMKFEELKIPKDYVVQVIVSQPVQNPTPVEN

These are yes or no findings as the source states them, for the method shown. Where a sequence is shown, tags or fusion partners need not be part of it.

The test concerns the target His-tagged DC-UbP (human) (UniProt Q8WUN7). Kind of test: NMR titration; 15N-labelled DC-UbP (100 uM) titrated stepwise with unlabelled USP5, UbE1, FH or SCCH; 1H-15N HSQC, 20 mM phosphate, 50 mM NaCl, pH 6.5, 298 K; both purified.

B1: FH fragment of UbE1 (FCCH+AD, residues 1-439) (domain or fragment, UniProt Q02053 1-439)
chain: MSSSPLSKKRRVSGPDPKPGSNCSPAQSALSEVSSVPTNGMAKNGSEADIDESLYSRQLYVLGHEAMKMLQTSSVLVSGLRGLGVEIAKNIILGGVKAVTLHDQGTTQWADLSSQFYLREEDIGKNRAEVSQPRLAELNSYVPVTAYTGPLVEDFLSSFQVVVLTNSPLEAQLRVGEFCHSRGIKLVVADTRGLFGQLFCDFGEEMVLTDSNGEQPLSAMVSMVTKDNPGVVTCLDEARHGFETGDFVSFSEVQGMIQLNGCQPMEIKVLGPYTFSICDTSNFSDYIRGGIVSQVKVPKKISFKSLPASLVEPDFVMTDFAKYSRPAQLHIGFQALHQFCALHNQPPRPRNEEDATELVGLAQAVNARSPPSVKQNSLDEDLIRKLAYVAAGDLAPINAFIGGLAAQEVMKACSGKFMPIMQWLYFDALECLPEDKEAL
Regarding B1, the binding result was “no binding”.

B2: SCCH fragment of UbE1 (residues 622-891) (domain or fragment, UniProt Q02053 622-891)
chain: QDPPEKSIPICTLKNFPNAIEHTLQWARDEFEGLFKQPAENVNQYLTDSKFVERTLRLAGTQPLEVLEAVQRSLVLQRPQTWGDCVTWACHHWHTQYCNNIRQLLHNFPPDQLTSSGAPFWSGPKRCPHPLTFDVNNTLHLDYVMAAANLFAQTYGLTGSQDRAAVASLLQSVQVPEFTPKSGVKIHVSDQELQSANASVDDSRLEELKATLPSPDKLPGFKMYPIDFEKDDDSNFHMDFIVAASNLRAENYDISPADRHKSKLIAGKII
On to B2, for which the binding result was “no binding”.
